Laboratory results as given in patent US20040077548A1 (CHANCELLORS MASTERS AND SCHOLARS OF THE UNIVERSITY OF OXFORD, published 2004).

Target: HLA-A*0201 molecules on T2 cells (CEMX721.174.T2) (human)
Assay: cell-based or functional assay

Row | Binder | Relative competitor activity
1 | QLSLLMWIT [NY-ESO-1 155-163 peptide QLSLLMWIT (SEQ ID NO: 3)] | 0.01 ratio to FluMA 58-66
2 | SLLMWITQCFL [NY-ESO-1 157-167 peptide SLLMWITQCFL (SEQ ID NO: 1)] | 0.04 ratio to FluMA 58-66
